The BET-seq Pho4 binding data (Le et al. 2018)
This is one part of the list. Values were computed here from the reads of four pooled replicates and scatter widely.

target: T1, Pho4 (S. cerevisiae) (UniProt P07270); experiment: relative binding free energy (BET-seq); higher = weaker binding; conditions: reference: library average
T1 sequence: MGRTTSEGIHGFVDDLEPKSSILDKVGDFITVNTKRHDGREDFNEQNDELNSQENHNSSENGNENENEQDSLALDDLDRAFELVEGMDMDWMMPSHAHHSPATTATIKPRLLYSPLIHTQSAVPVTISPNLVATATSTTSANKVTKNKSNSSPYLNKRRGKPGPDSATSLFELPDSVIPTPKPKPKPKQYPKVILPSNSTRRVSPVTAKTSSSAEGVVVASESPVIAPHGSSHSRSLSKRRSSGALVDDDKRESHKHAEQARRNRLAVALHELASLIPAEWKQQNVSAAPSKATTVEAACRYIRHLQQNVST

Sequence | relative binding free energy
CGCAACACGTGGGGTT | -0.08 kcal/mol
TGTTGCACGTGGCTTC | 0.02 kcal/mol
ATCGGCACGTGCGGTT | -0.06 kcal/mol
GAGAGCACGTGGGTTG | -0.15 kcal/mol
TGGAGCACGTGGCTTT | -0.19 kcal/mol
TAAGTCACGTGGGTCG | 0.03 kcal/mol
TATGTCACGTGAGCTA | 0.24 kcal/mol
TTTGGCACGTGGTAGT | -0.18 kcal/mol
GATGTCACGTGAGTAT | 0.34 kcal/mol
GAGTACACGTGGAGCG | 0.18 kcal/mol
AGGGCCACGTGCGGGA | -0.16 kcal/mol
AGTTTCACGTGAAGGG | 0.46 kcal/mol
AACGGCACGTGTCGGT | -0.14 kcal/mol
GGTGACACGTGAGGGA | 0.27 kcal/mol
GGTTTCACGTGGTCAT | 0.23 kcal/mol
GTTCGCACGTGTGATT | 0.13 kcal/mol
TTGTGCACGTGCTGGG | -0.03 kcal/mol
TTTTCCACGTGGGGTG | -0.05 kcal/mol
TGCGACACGTGAGTGG | 0.29 kcal/mol
GGCGCCACGTGTGTAG | 0.01 kcal/mol
GTATGCACGTGGGTAA | -0.12 kcal/mol
GTTCGCACGTGGCTGG | -0.17 kcal/mol
TACTACACGTGTTGGG | 0.08 kcal/mol

Sequence | relative binding free energy
TGGTCCACGTGCGTGG | -0.1 kcal/mol
GTTTACACGTGATCGT | 0.04 kcal/mol
AGGAACACGTGTAAGT | 0.22 kcal/mol
TGTTACACGTGTAATG | 0.16 kcal/mol
TATAGCACGTGTCAGT | -0.11 kcal/mol
TGGGTCACGTGAGAAT | 0.5 kcal/mol
TGTTACACGTGGGTTG | -0.01 kcal/mol
TCTTTCACGTGTTGCT | 0.33 kcal/mol
TGTCGCACGTGGGGAC | -0.26 kcal/mol
TTAAGCACGTGAGGTT | 0.2 kcal/mol
TGGCGCACGTGATGAG | 0.08 kcal/mol
CTGTGCACGTGTGGGG | -0.03 kcal/mol
ATTGGCACGTGATGTG | -0.02 kcal/mol
TTGTGCACGTGGTTTC | -0.06 kcal/mol
GGAGTCACGTGGGTGC | 0.09 kcal/mol
AGGGCCACGTGAATTG | 0.3 kcal/mol
TTAGTCACGTGTCAGA | 0.12 kcal/mol
GGCTACACGTGAGGGC | 0.35 kcal/mol
TATTACACGTGGGCTT | 0.06 kcal/mol
TTTGCCACGTGTGAGC | 0.07 kcal/mol
CGGGCCACGTGTTTTT | 0.02 kcal/mol
TCCGTCACGTGTTTGT | -0.02 kcal/mol
GTAGGCACGTGGCGCT | -0.2 kcal/mol

Sequence | relative binding free energy
TACTACACGTGTTGTT | 0.09 kcal/mol
TATGGCACGTGACGTA | -0.1 kcal/mol
CATGTCACGTGTAAGG | 0.23 kcal/mol
ATTGCCACGTGGGGGG | -0.22 kcal/mol
ATGGTCACGTGATTAG | 0.19 kcal/mol
ATCTACACGTGTATTT | 0.11 kcal/mol
GTTGACACGTGTTTAT | 0.15 kcal/mol
GTAGGCACGTGGGATC | -0.12 kcal/mol
TTGTACACGTGGGCGT | -0.07 kcal/mol
GTGAACACGTGAGGGC | 0.25 kcal/mol
GTGTCCACGTGGGCAT | -0.09 kcal/mol
GAGGCCACGTGTCGGG | -0.04 kcal/mol
AGTTTCACGTGTGTAG | 0.24 kcal/mol
TTGGTCACGTGCAAGA | 0.19 kcal/mol
AGGCTCACGTGAGGGT | 0.32 kcal/mol
CGTATCACGTGAGATG | 0.27 kcal/mol
TTGCACACGTGGTTGA | 0.01 kcal/mol
GAGGGCACGTGAGTAT | 0.23 kcal/mol
AGTGTCACGTGTAGTA | 0.06 kcal/mol
TTTGACACGTGTTTAT | 0.04 kcal/mol
AGGTTCACGTGGTAAC | 0.31 kcal/mol
GAAATCACGTGCAGGG | 0.32 kcal/mol
GGCGGCACGTGCTGTT | -0.13 kcal/mol

Sequence | relative binding free energy
GATTGCACGTGGAGAT | 0.15 kcal/mol
ACTGGCACGTGGGTTG | -0.26 kcal/mol
ATTCGCACGTGAGAGT | 0.19 kcal/mol
ATGGACACGTGCGGGT | -0.02 kcal/mol
GAACACACGTGTTGGG | 0.06 kcal/mol
GATGCCACGTGTTGTG | -0.02 kcal/mol
GCTGTCACGTGGCTGG | 0.14 kcal/mol
GGGTTCACGTGGTGCT | 0.24 kcal/mol
AGAGTCACGTGCAGTG | 0.17 kcal/mol
GCGTTCACGTGTGTAA | 0.25 kcal/mol
GTTATCACGTGGTTGT | 0.11 kcal/mol
TTAAGCACGTGAAGCT | 0.11 kcal/mol
GGCATCACGTGGGGCA | 0.16 kcal/mol
GTGTACACGTGCTATG | 0.07 kcal/mol
AGGGGCACGTGGGTAC | -0.26 kcal/mol
GGGTTCACGTGTAGGC | 0.23 kcal/mol
GGTCTCACGTGTTAAG | 0.29 kcal/mol
CTTATCACGTGGTGCT | 0.13 kcal/mol
AGAGGCACGTGGTCGA | -0.19 kcal/mol
ATAGTCACGTGTTGCT | 0.01 kcal/mol
ATATTCACGTGTGAAT | 0.27 kcal/mol
GGGCGCACGTGGCGTT | -0.06 kcal/mol
GTGATCACGTGTAGCT | 0.22 kcal/mol

Sequence | relative binding free energy
TTTTTCACGTGTGCGT | 0.37 kcal/mol
GTTTTCACGTGGTACG | 0.24 kcal/mol
GTTTTCACGTGATGAT | 0.42 kcal/mol
TTTAGCACGTGTGAAA | 0.08 kcal/mol
TTTACCACGTGGTTGA | -0.05 kcal/mol
GTGTGCACGTGGTCGA | -0.07 kcal/mol
TCATTCACGTGTGTTT | 0.25 kcal/mol
TTGACCACGTGGTTAG | 0.05 kcal/mol
CGGGGCACGTGGAAGA | -0.12 kcal/mol
GAATGCACGTGTTGGA | -0.02 kcal/mol
AAACTCACGTGTGTTA | 0.35 kcal/mol
GGTTTCACGTGTGTCT | 0.2 kcal/mol
TCTTGCACGTGTGCGT | 0.07 kcal/mol
GGTGGCACGTGCGTGC | -0.09 kcal/mol
TAAAGCACGTGGGGCG | -0.34 kcal/mol
AGAGTCACGTGATGTA | 0 kcal/mol
GGGCGCACGTGCAGGG | 0 kcal/mol
TCGGACACGTGTTGAG | 0.09 kcal/mol
CTTGGCACGTGAGCTA | 0.28 kcal/mol
GGAGGCACGTGAATGT | 0.3 kcal/mol
TGTTGCACGTGTGGTA | -0.01 kcal/mol
AGGGTCACGTGGACTA | 0.21 kcal/mol
TTTTACACGTGATGTC | 0.22 kcal/mol
